Consider 23 compounds from paper PMC4336329 (PLoS ONE, 2015).

Screen size: about 310,000 compounds; about 2,200 (0.71%) showed an effect of 50% or more. Effects have a minus sign here. Some of the results follow.

This test deals with human ether-à-go-go-related gene (hERG) potassium channel (human, UniProt Q12809). The test is described as follows: primary screen, population patch clamp on CHO cells stably expressing hERG.
human ether-à-go-go-related gene (hERG) potassium channel, sequence (Q12809 whole entry, looked up): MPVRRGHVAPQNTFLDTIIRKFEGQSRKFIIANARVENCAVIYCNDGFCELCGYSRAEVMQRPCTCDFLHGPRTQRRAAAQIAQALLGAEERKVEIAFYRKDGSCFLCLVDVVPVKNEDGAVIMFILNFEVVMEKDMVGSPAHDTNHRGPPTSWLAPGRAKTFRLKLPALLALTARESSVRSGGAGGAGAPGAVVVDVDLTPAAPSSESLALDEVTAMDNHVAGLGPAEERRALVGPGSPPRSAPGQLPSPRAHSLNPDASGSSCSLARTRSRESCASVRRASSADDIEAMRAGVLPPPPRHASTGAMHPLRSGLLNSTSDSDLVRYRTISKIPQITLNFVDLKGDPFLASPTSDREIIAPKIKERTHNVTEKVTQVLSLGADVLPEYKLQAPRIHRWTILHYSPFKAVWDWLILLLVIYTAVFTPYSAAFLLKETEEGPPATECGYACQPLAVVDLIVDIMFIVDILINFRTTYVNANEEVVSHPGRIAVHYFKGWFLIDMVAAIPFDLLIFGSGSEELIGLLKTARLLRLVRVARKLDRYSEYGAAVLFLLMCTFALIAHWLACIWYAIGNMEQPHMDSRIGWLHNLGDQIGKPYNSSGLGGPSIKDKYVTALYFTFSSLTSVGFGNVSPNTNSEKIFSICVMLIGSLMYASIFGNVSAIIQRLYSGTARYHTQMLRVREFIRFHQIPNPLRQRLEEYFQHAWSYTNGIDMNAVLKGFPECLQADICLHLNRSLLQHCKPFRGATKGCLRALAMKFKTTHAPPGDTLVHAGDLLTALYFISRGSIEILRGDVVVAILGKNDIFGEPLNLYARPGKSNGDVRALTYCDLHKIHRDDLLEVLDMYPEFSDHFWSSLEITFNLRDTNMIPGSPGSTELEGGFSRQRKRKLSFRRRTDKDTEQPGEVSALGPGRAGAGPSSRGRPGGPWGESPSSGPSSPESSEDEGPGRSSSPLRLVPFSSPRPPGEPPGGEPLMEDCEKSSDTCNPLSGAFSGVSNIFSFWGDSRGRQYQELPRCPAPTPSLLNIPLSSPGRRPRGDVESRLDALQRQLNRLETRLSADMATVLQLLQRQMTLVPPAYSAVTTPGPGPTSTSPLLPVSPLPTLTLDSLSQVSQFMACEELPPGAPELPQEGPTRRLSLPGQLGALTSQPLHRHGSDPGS
As for `CCn1c(/C=C2\C(=O)N(C)c3ccccc32)nc2ccccc2c1=O`, the “hERG current change (%, negative = inhibition) at 1uM” value is given as 7.29%.

In the case of `CCc1ccc(C(=O)C(C)OC(=O)CNS(=O)(=O)c2ccc(C)cc2)cc1` (centres unmarked), the “hERG current change (%, negative = inhibition) at 1uM” value came to 9.83%.

As to `Cc1ccc(-c2c(C#N)c(N)nc3c2CCCC3)o1`, the “hERG current change (%, negative = inhibition) at 1uM” value worked out at 6.77%. With `CCOC(=O)C(C)Sc1nnc(CSc2nc3nc(C)cc(C)n3n2)o1` (centres unmarked) the figure was 12.9%; with `O=C(CN1CCc2ccccc2C1)Nc1ccccc1N1CCCCCC1.O=C(O)C(=O)O`, -0.782%. With `Cc1ccc(S(=O)(=O)CCC(=O)OCC(=O)NNC(=O)c2ccc([N+](=O)[O-])cc2)cc1` the figure was -1.62%; with `O=C(O)C/C=C(/NC(=O)OCc1ccccc1)C(=O)OCc1ccccc1`, 3.07%; with `CC(=O)c1ccc(N(CC(=O)NC2CCCC2)C(=O)CNC(=O)c2ccco2)cc1`, 9.11%. With `O=C(c1ccc2c(=O)n(-c3ccccc3)c(=O)[nH]c2c1)N1CCCCC1` the figure was 1.54%; with `C=CCONC(=O)c1cc(OCC(F)(F)F)ccc1OCC(F)(F)F`, -0.727%.

`COCCCNC(=O)CS(=O)Cc1nc(-c2cccc(OC)c2)oc1C` (centres unmarked): the “hERG current change (%, negative = inhibition) at 1uM” value stood at 5.9%.

On to `O=C(O)c1ccc(Nc2nc(-c3cccnc3)cs2)cc1`, for which the “hERG current change (%, negative = inhibition) at 1uM” value is -1.2%. For the compound `CCCCNC(=O)NNC(=O)COc1cc(C)cc(C)c1`, the “hERG current change (%, negative = inhibition) at 1uM” value is 8.03%. With `O=C(CNc1cccc(S(=O)(=O)N2CCCCC2)c1)Nc1ccccc1F` the figure was 10.3%. As to `CC1(C)O[C@@H]2C[C@H]3[C@@H]4CCC5=CC(=O)CC[C@]5(C)[C@@]4(F)[C@@H](O)C[C@]3(C)[C@]2(C(=O)CCl)O1`, the “hERG current change (%, negative = inhibition) at 1uM” value was 15.4%.

On to `COc1ccc(CC(=O)N2N=C(C)CC2(O)c2cccnc2)cc1OC` (centres unmarked), for which the “hERG current change (%, negative = inhibition) at 1uM” value amounted to 6.22%. With `c1cc2nncn2nc1N1CCCC1` the figure was 4.9%; with `COc1ccc(Cn2c(=O)[nH]c3cc(C(=O)NCCCN4CCCC4=O)ccc3c2=O)cc1`, 8.02%. As to `Cc1cccc(NC(=O)c2sc3nc(N)c(C#N)cc3c2N)c1`, the “hERG current change (%, negative = inhibition) at 1uM” value is 12.2%. `COc1ccc(/C=N/NC(=O)C(=O)N2CCCCCC2)cc1`: the “hERG current change (%, negative = inhibition) at 1uM” value worked out at 9.68%. Then `Cc1cc(Br)ccc1SCC(=O)OCC(=O)N1CCN(C(=O)c2ccco2)CC1`, with -15.3%; and `O=C(Cn1cc(C(=O)C2CC2)c2ccccc21)NCc1ccc2c(c1)OCO2`, with 8.71%.

With `Cc1ccccc1CNS(=O)(=O)c1c(C(=O)N2CCCC2)c(C)n(C)c1C`, the “hERG current change (%, negative = inhibition) at 1uM” value was 15.5%.
